91 compounds from PubChem BioAssay AID463173 (ICCB-Longwood Screening Facility, Harvard Medical School, 2010) can be followed below.

The whole screen tested about 52,000 compounds, of which about 1,700 (3.3%) were called active. No stated cut-off is given here; in the data, active means survival mostly below about 52% (no sharp cut-off); inactive means mostly above about 56%. Some of the results follow.

This assay relates to Wild type. Description: S. aureus survival, RN4220 and DeltatarO strains – OD600, teichoic acid synthesis inhibitors, primary screen (AID 463173). The following applies: S. aureus RN4220 wild type/DeltatarO growth, OD600, 18 h, stronger effect = lower value, screened at 18.75 µg/mL (by protocol).
Turning to `O=C(c1ccc(F)cc1)n1nc(-c2ccccc2)nc1NCc1ccc(F)cc1`, the survival is inactive: 19%.

For `CCc1ccc2[nH]c(=O)c(C(c3nnnn3Cc3ccccc3)N(Cc3ccccc3)Cc3ccco3)cc2c1` (stereo unspecified), the survival is inactive: 113%.

Take `CCC(Sc1nc2ccccc2c2nc(-c3ccccc3)nn12)C(=O)Nc1cccc(OC)c1` (stereo unspecified): the survival was inactive: 67%.

Take `CCSc1nnc(C2CCCN(CC(=O)N3CCN(c4ccccc4)CC3)C2)n1CC` (stereo unspecified): the survival is inactive: 101%.

For the compound `O=c1oc2ccccc2cc1-c1nnc(-c2cccc(Cl)c2)o1`, the survival was inactive: 107%.

For `Cc1c(Cl)cccc1NC(=O)CCN1C(=O)c2ccccc2Sc2ncccc21`, the survival was inactive: 86%.

For the compound `COC(=O)c1c(NC(=O)CS(=O)(=O)c2ccc(C)cc2)sc2c1CCCC2`, the survival was active: -6%.

Regarding `Cc1ccc2oc(=O)c3cnn(CC(=O)N4CCN(c5ccccc5)CC4)c3c2c1`, the survival is inactive: 113%.

For the compound `CCC(C)NC(=O)CSc1nc2n[nH]c(C)c2c(=N)n1-c1ccc(C)c(Cl)c1` (stereo unspecified), the survival was inactive: 80%.

`CCN(C(=O)Cn1nnc2sc(-c3ccccc3)cc2c1=O)c1cccc(C)c1`: the survival was inactive: 80%.

Turning to `Cc1cc(NC(=O)CCNS(=O)(=O)c2ccc3c(c2)oc(=O)n3C)ccc1Br`, the survival was inactive: 72%.

In the case of `CCN(CC)C(=O)c1cc(-c2ccc(Cl)cc2)on1`, the survival was inactive: 51%.

For the compound `COc1ccc(NC(=O)CCn2c(=O)c3cccn3c3ccccc32)c(OC)c1`, the survival was inactive: 73%.

For `CCC1CN(C(=O)Nc2cccc3c2CCCC3)c2ccccc2O1` (stereo unspecified), the survival was inactive: 92%.

Turning to `O=C(Nc1nnc(S(=O)(=O)N2CCCc3ccccc32)s1)c1ccccc1`, the survival is inactive: 31%.

Regarding `O=C(NCCC(c1ccccc1)c1ccco1)c1cccs1` (stereo unspecified), the survival was inactive: 113%.

Take `COC(=O)c1cnn2c(C)c(Cc3c(C)cc(C)cc3C)c(C)nc12`: the survival was inactive: 89%.

In the case of `CCN(CC)S(=O)(=O)c1ccc2c(c1)c(=O)c(C(=O)N1CCN(c3cccc(C)c3)C(C)C1)cn2C` (stereo unspecified), the survival was inactive: 98%.

As to `Cc1ccc(CNC(=O)CN(c2ccc(C)cc2)S(=O)(=O)c2c(C)nn(C)c2C)cc1`, the survival was inactive: 93%.

With `Cc1ccc2c(=O)cc(C(=O)Nc3ccc(S(=O)(=O)N(C)Cc4ccccc4)cc3)oc2c1`, the survival was inactive: 112%.

For `CCCCn1c(C(C)NC(=O)c2ccccc2)nc2ccccc21` (stereo unspecified), the survival was inactive: 123%.

Take `CCNc1ccc2c(Cl)cc(=O)oc2c1`: the survival was inactive: 112%.

Turning to `CC(=O)c1ccc(NC(=O)CN(C)S(=O)(=O)c2cccc3nsnc23)cc1`, the survival was inactive: 84%.

Consider `COc1ccccc1-c1cc2nc(C)c(CCC(=O)NCc3cccc(Cl)c3)c(C)n2n1`, for which the survival is inactive: 112%.

With `c1ccc(CN2CCC(NC3CCCC3)CC2)cc1`, the survival is inactive: 109%.

In the case of `O=C(COc1cccc(-n2cnnn2)c1)NC1CCCCC1`, the survival was inactive: 111%.

`CCOC(=O)C1CCCN(CCC(=O)Nc2cccc(C)c2)C1` (stereo unspecified): the survival is inactive: 94%.

With `COc1ccc(N2CC(NC(=O)C3CC3)CC2=O)cc1OC` (stereo unspecified), the survival was inactive: 102%.

Take `CC(C)CCn1c(=O)c2sccc2n2c(CCCC(=O)NCc3ccc(F)cc3)nnc12`: the survival is inactive: 90%.

On to `Cc1c(C(=O)Nc2ccc(F)cc2)sc2nc[nH]c(=O)c12`, for which the survival is inactive: 127%.

Take `CCc1ccccc1NC(=O)c1cc(S(=O)(=O)N2CCCc3ccccc32)ccc1F`: the survival was inactive: 63%.

As to `Cc1cccc(N2CCN(C(=O)CCn3c(=O)c4cccn4c4cccnc43)CC2)c1C`, the survival is inactive: 58%.

Take `CCOc1ccc(N(C)C(CNS(=O)(=O)c2ccccc2)c2ccccc2)cc1` (stereo unspecified): the survival was inactive: 90%.

Consider `O=C(COc1ccccc1)Nc1cccc(-c2cn3cccnc3n2)c1`, for which the survival was inactive: 81%.

As to `Fc1cccc(-n2ncc3c2ncn2nc(-c4ccccc4Cl)nc32)c1`, the survival is inactive: 86%.

In the case of `O=C(Cn1c(=O)c2cccn2c2ccc(F)cc21)N1CCN(c2ccc(F)cc2)CC1`, the survival was inactive: 90%.

As to `CCOc1ccccc1CNC(=O)c1cccn1-c1nnc(N2CCCCC2)s1`, the survival was inactive: 129%.

On to `Cc1ccn2c(=O)c(C(=O)NC(C)c3ccccc3)c(O)nc2c1` (stereo unspecified), for which the survival is inactive: 81%.

Consider `CCOc1ccc(C(=O)Nc2cc(-c3nc4ccccc4s3)ccc2OC)cc1`, for which the survival is inactive: 163%.

With `O=C(CN(Cc1cccs1)C(=O)c1csnn1)NC1CCCC1`, the survival is inactive: 106%.

On to `Cc1cccnc1NC(=O)c1c(O)c2cc(F)cc3c2n(c1=O)C(C)CC3` (stereo unspecified), for which the survival was inactive: 114%.

Turning to `COc1ccc(C2=C(Nc3ccc(C)c(C)c3)c3ccccc3C2=O)cc1`, the survival is inactive: 90%.

In the case of `COc1ccccc1N1CCN(C(=O)c2cc(-c3ccccc3O)on2)CC1`, the survival was inactive: 66%.

As for `N#Cc1cccc(NC(=O)c2cc3c(s2)-c2ccc(Cl)cc2SC3)c1`, the survival is inactive: 97%.

As for `COc1ccc(CCNC(=O)c2ccc3c(c2)N(Cc2ccc(F)cc2)CCS3)cc1OC`, the survival is inactive: 141%.

On to `Cc1nc(-c2ccc(S(=O)(=O)Nc3ccc(C)c(N(C)C)c3)cc2)co1`, for which the survival is inactive: 68%.

As to `CCC(=O)Nc1nc2cc(Cl)c(C)cc2s1`, the survival is inactive: 110%.

On to `CCc1nn(CC(=O)NCc2ccccc2Cl)c(=O)c2cccn12`, for which the survival was inactive: 86%.

Regarding `CCCN1C(=O)c2ccccc2NC1c1ccc(C)cc1` (stereo unspecified), the survival was inactive: 112%.

Turning to `O=C(COc1ccccc1[N+](=O)[O-])Nc1ccc(-c2nc3ccccc3s2)cc1`, the survival is inactive: 94%.

Turning to `Cc1cc(C)cc(NC(=O)c2cccc3c2C(=O)N(C2CCCCC2)C3)c1`, the survival is inactive: 42%.

As for `COc1ccc(S(=O)(=O)c2cc(NS(=O)(=O)c3ccc(Cl)cc3)c(C)c(C)c2O)cc1`, the survival is inactive: 65%.

On to `COc1ccc(NC(=O)c2cnc[nH]2)cc1`, for which the survival was inactive: 150%.

As to `Cc1nc(SCC(=O)Nc2ccccc2F)[nH]c(=O)c1Cc1ccccc1`, the survival was inactive: 101%.

Turning to `O=S(=O)(c1ccccc1)c1nc(-c2cccs2)oc1SCc1ccc(F)cc1`, the survival was inactive: 61%.

Consider `Cc1ccc(NC(c2ccc(Cl)cc2)c2nnc(-c3cccc(F)c3)o2)cc1C` (stereo unspecified), for which the survival was inactive: 95%.

Regarding `COC(=O)c1ccc(NC(=O)CN2C(=O)c3cccc4cccc2c34)cc1`, the survival is inactive: 85%.

As to `COc1ccc(-c2cn3nc(SCC(=O)Nc4ccc(C)c(Cl)c4)ccc3n2)cc1`, the survival is inactive: 67%.

As for `Cc1[nH]c2ccc(-c3nnc(SCC(=O)N4CCc5ccccc54)o3)cc2c1C`, the survival was inactive: 95%.

`COC(=O)CCNC(=O)N1CCN(c2nnc(C)c3c(C)n(-c4ccc(Cl)cc4)nc23)CC1`: the survival was inactive: 80%.

As for `COc1ccc(OC)c(CCNC(=O)c2c3c(nc4ccccc24)C(=O)N(C2CCCCC2)C3)c1`, the survival was inactive: 65%.

With `COc1ccc(-c2noc(C3CC(=O)N(c4ccccc4)C3)n2)c(OC)c1` (stereo unspecified), the survival was inactive: 78%.

With `CCN(CCCNC(=O)c1cc(Nc2ccccc2OC)nc2ccccc12)c1cccc(C)c1`, the survival was inactive: 99%.

On to `O=S(=O)(NCC(Nc1ccc(Cl)cc1)c1ccccc1)c1ccccc1` (stereo unspecified), for which the survival was inactive: 56%.

For `COc1ccccc1-c1nnn(CC#N)n1`, the survival was inactive: 102%.

On to `Cc1cc(C)c(NC(=O)COc2ccc3c(C)cc(=O)oc3c2)c(C)c1`, for which the survival was inactive: 87%.

On to `O=C(CSc1nc2c([nH]c3ccccc32)c(=O)n1-c1ccc(Cl)cc1)N1CCCC1`, for which the survival was inactive: 75%.

Consider `O=S(=O)(NCC1OCCc2ccccc21)c1ccccc1` (stereo unspecified), for which the survival was inactive: 113%.

Turning to `CCOC(=O)Cn1c(=O)oc2cc(S(=O)(=O)N3CCN(c4ccc(C(C)=O)cc4)CC3)ccc21`, the survival was inactive: 81%.

As for `CCOc1ccc(S(=O)(=O)c2cn(Cc3cc(C)ccc3C)c3ccc(OCC)cc3c2=O)cc1`, the survival is inactive: 80%.

Take `COc1cccc(Nc2nc3cc(Cl)c(Cl)cc3nc2-n2nc(C)cc2C)c1`: the survival is inactive: 81%.

As for `COc1ccc(NC(=O)Cn2nc(C)c3nn(-c4ccc(Cl)cc4)c(C)c3c2=O)cc1`, the survival is inactive: 80%.

With `CCOc1ccc(NC(=O)c2cc(S(=O)(=O)N3CCOCC3)ccc2F)cc1`, the survival was inactive: 71%.

Take `CCCOC(=O)c1ccc(Cn2nnc3sc4c(c3c2=O)CCC(C)C4)cc1` (stereo unspecified): the survival was inactive: 77%.

Consider `COc1ccccc1CNC(=O)c1cnc(N2CCCC2)nc1C`, for which the survival was inactive: 126%.

For the compound `CC1CCN(c2oc(/C=C/c3ccc(F)cc3)nc2C#N)CC1`, the survival is inactive: 81%.

With `CCN(CC)c1ccc2c(c1)OC(N)=C(C#N)C2c1cccc(F)c1` (stereo unspecified), the survival is inactive: 62%.

With `O=C(Nc1ccccc1)C1CCN(S(=O)(=O)c2ccc3[nH]c4c(c3c2)CCCCC4)CC1`, the survival was inactive: 72%.

With `COc1ccccc1NC(=O)C1=C(C)Nc2nc(SCc3ccccc3)nn2C1c1cccnc1` (stereo unspecified), the survival was inactive: 81%.

`COc1ccc(CCNC(=O)CCn2c(=O)c3ccccc3n(CC(=O)Nc3ccc(C)cc3C)c2=O)cc1OC`: the survival is inactive: 141%.

In the case of `CCc1c(C)sc2c1CCN(C(=O)Nc1ccc(F)c(Cl)c1)C2c1ccc(F)cc1` (stereo unspecified), the survival is inactive: 64%.

On to `CCOc1ccc(-c2nc(Cn3c(=O)cc(C)c4c(C)nn(-c5ccc(C)cc5)c43)c(C)o2)cc1`, for which the survival is inactive: 87%.

With `Cn1c(=O)c2c(c3ccccc31)OC(=O)CC2c1cccc(F)c1` (stereo unspecified), the survival is inactive: 76%.

Regarding `O=C(Nc1ccc(Cl)cc1)N1CCN(c2ccc3nnc(-c4ccccc4)n3n2)CC1`, the survival is inactive: 82%.

For the compound `O=c1[nH]c2cc3c(cc2cc1C(c1nnnn1C1CCCC1)N1CC=C(c2ccc(F)cc2)CC1)OCO3` (stereo unspecified), the survival is inactive: 105%.

As to `CCOc1ccc(NC(=O)c2cc3c(=O)n(Cc4cccs4)ccc3nc2C)cc1`, the survival was inactive: 73%.

For the compound `CCCCC1(O)CC(C)(C)N([O])C(C)(C)C1`, the survival is inactive: 106%.

In the case of `COc1ccccc1N(CC(=O)NCCSCc1cccc(Cl)c1)S(C)(=O)=O`, the survival is inactive: 76%.

Turning to `O=C(C1CCC(Cn2c(=O)c3sccc3n(Cc3ccccc3F)c2=O)CC1)N1CCCCC1` (stereo unspecified), the survival is inactive: 129%.

For `O=C(NCc1ccco1)C1CCC(N2C(=O)c3ccccc3C2=O)CC1` (stereo unspecified), the survival is inactive: 104%.

In the case of `Cc1nonc1C(=O)N/N=C/c1ccccc1`, the survival was inactive: 121%.
